{"source": "PubChem BioAssay AID894", "about": "(National Center for Advancing Translational Sciences (NCATS), 2007)", "note": "The whole screen tested about 150,000 compounds, of which about 6,500 (4.3%) were called active. Inconclusive results, whose numbers are uncertain, are shown with a selection of clear calls. Calls follow the shape of the dose curve; as a rule, active = well fitted inhibition curve with a large enough effect (not every such curve was filed as active); inconclusive = small, poorly fitted or top-dose-only effect, or another doubt; inactive = no such curve, though single readings can be large or run the other way. Potencies of inconclusive entries are left out as doubtful fits. % is scaled to controls: 0 for no effect and ±100 for the full control effect; potency is read from the fitted curve at half-maximal effect; tags tell the direction and shape of the fitted curve."}
{"molecular_target": "15-hydroxyprostaglandin dehydrogenase [NAD(+)] (Homo sapiens) (UniProt P15428)", "sequence (P15428 whole entry, looked up)": "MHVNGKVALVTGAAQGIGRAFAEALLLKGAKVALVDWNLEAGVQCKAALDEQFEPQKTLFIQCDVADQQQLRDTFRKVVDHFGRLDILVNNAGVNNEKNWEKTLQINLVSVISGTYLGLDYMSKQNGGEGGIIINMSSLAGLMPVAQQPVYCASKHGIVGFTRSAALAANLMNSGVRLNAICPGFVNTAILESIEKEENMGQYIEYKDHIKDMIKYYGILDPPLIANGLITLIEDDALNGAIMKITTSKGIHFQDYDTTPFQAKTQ", "assay": "qHTS Assay for Inhibitors of HPGD (15-Hydroxyprostaglandin Dehydrogenase)", "conditions": "purified HPGD, NADH fluorescence kinetic, PGE2 substrate; activity change, negative = inhibition: active compounds read low", "method_in_brief": "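NADH formation kinetics: reaction with 30 uM PGE2 and 1 mM NAD+ (final), 20 nM enzyme, Tris-HCl pH 8 with Tween 20, after 15 min compound preincubation at room temperature. Fluorescence change, last versus first of five reads.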"}
{"smiles": "CCOC(=O)c1cnc2scnn2c1=O", "Potency": "inconclusive [inhibitor, partial curve, poor fit]"}
{"smiles": "CCOC(=O)CSc1nc(-c2ccc3c(c2)OCO3)ccc1C#N", "Potency": "inconclusive [inhibitor, partial curve]"}
{"smiles": "NC(=O)c1ccccc1NC(=O)/C=C/c1c(Cl)cccc1Cl", "Potency": "inconclusive [inhibitor, partial curve]"}
{"smiles": "Cc1nn(-c2ccc(S(=O)(=O)O)cc2)c(O)c1N=Nc1ccc(-c2ccc(N=Nc3ccc4c(S(=O)(=O)O)cc(S(=O)(=O)O)c(N)c4c3O)c(O)c2)cc1O.[Cu].[Cu]", "Potency": "active: 0.794 µM"}
{"smiles": "COc1ccc(CNC(=O)/C=C/c2cc([N+](=O)[O-])ccc2OC(F)F)cc1", "activity change, negative = inhibition": "inactive: 4.75%"}
{"smiles": "O=C1CCSc2cccc3cccc(c23)N1", "activity change, negative = inhibition": "inactive: -10.4%"}
{"smiles": "COc1cccc2[nH]c3c(N4CCC(C(N)=O)CC4)ncnc3c12", "Potency": "inconclusive [inhibitor, partial curve]"}
{"smiles": "c1ccc2c(c1)c1c3n2CCNC3CCC1", "note": "(stereo not drawn)", "Potency": "inconclusive [inhibitor, single point]"}
{"smiles": "Fc1cccc2sc(Nc3nc4cc5c(cc4s3)OCO5)nc12", "Potency": "inconclusive [inhibitor, partial curve, poor fit]"}
{"smiles": "Cc1ccc(-c2nc3ccccn3c2Nc2ccccc2)o1", "Potency": "inconclusive [inhibitor, partial curve]"}
{"smiles": "Cc1cc(C)c2c(n1)nn1c(N3CCN(c4ccccn4)CC3)cc(C)nc21", "Potency": "inconclusive [inhibitor, partial curve]"}
{"smiles": "O=C(COC(=O)c1cccc(S(=O)(=O)NCc2ccccc2)c1)c1ccc2c(c1)OCCO2", "Potency": "inconclusive [inhibitor, partial curve, poor fit]"}
{"smiles": "COc1ccc(Cn2nnnc2C(c2cc3cc(C)cc(C)c3[nH]c2=O)N2CCOCC2)cc1", "note": "(stereo not drawn)", "Potency": "inconclusive [inhibitor, partial curve]"}
{"smiles": "Cn1c(N/N=C2\\CCCc3ccccc32)nc2c1c(=O)n(Cc1ccccc1)c(=O)n2C", "Potency": "inconclusive [inhibitor, single point]"}
{"smiles": "COc1ccc(-c2n[nH]c(=S)n2/N=C/C=C/c2ccccc2OC)cc1", "Potency": "active: 1.26 µM"}
{"smiles": "CCOC(=O)c1[nH]c2ccc(OC)cc2c1NC(=O)CCN1CCSCC1", "Potency": "inconclusive [inhibitor, partial curve]"}
{"smiles": "Cc1ccc(S(=O)(=O)Nc2ccccc2C(N)=O)cc1", "Potency": "inconclusive [inhibitor, partial curve]"}
{"smiles": "O=C(NCc1ccccn1)C1COc2ccccc2O1", "note": "(stereo not drawn)", "Potency": "active: 14.1 µM"}
{"smiles": "CC1CCN(CCCNC(=O)c2coc3nc4ccccc4nc23)CC1", "Potency": "inconclusive [inhibitor, partial curve]"}
{"smiles": "CC(=O)NCC(=O)OCC(=O)Nc1ccc(C(C)=O)cc1", "Potency": "inconclusive [inhibitor, single point]"}
{"smiles": "Cc1c(C(=O)N2CCOCC2)[nH]c2ccc(OCc3ccccc3)cc12", "Potency": "inconclusive [inhibitor, partial curve]"}
{"smiles": "COC(=O)C(C)(C)ONC(=O)Nc1ccccc1Br", "activity change, negative = inhibition": "inactive: -8.05%"}
{"smiles": "COc1ccc2c(C)cc(SCC(=O)Nc3ncc(Cl)cc3Cl)nc2c1", "Potency": "inconclusive [inhibitor, partial curve]"}
{"smiles": "O=C(Nc1cccc(Br)c1)c1ccc2nc(N3C(=O)CCC3=O)sc2c1", "Potency": "inconclusive [inhibitor, single point]"}
{"smiles": "COc1ccc2[nH]c(=O)c(CN(Cc3cccs3)C(=S)Nc3cccc(C)c3)cc2c1", "Potency": "inconclusive [inhibitor, partial curve]"}
{"smiles": "Cc1cc(C)n2c(SCc3c(C)noc3C)nnc2n1", "Potency": "inconclusive [inhibitor, single point]"}
{"smiles": "Cc1ccc(NS(=O)(=O)c2ccc(Cl)c(C(=O)Nc3ccccc3-c3nc4ccccc4[nH]3)c2)cc1C", "Potency": "inconclusive [inhibitor, single point]"}
{"smiles": "Cc1ccc2cc(CCNC(=O)c3ccc(C)c([N+](=O)[O-])c3)c(=O)[nH]c2c1", "activity change, negative = inhibition": "inactive: -10.5%"}
{"smiles": "CCOC(=O)c1c(CSC(=N)N)n(-c2ccc(Br)cc2)c2cc(Br)c(OC(C)=O)cc12", "Potency": "inconclusive [inhibitor, single point]"}
{"smiles": "CCn1cc(C(=O)O)c(=O)c2cc(F)c(N/N=C/c3ccccc3)cc21", "Potency": "inconclusive [inhibitor, partial curve]"}
{"smiles": "CCc1cc2c(NCC3CCCO3)nc(C)nc2s1", "note": "(stereo not drawn)", "activity change, negative = inhibition": "inactive: -8.8%"}
{"smiles": "CC(=O)Cc1nsc(NC(=O)c2cc(-c3cccc(C(F)(F)F)c3)oc2C)n1", "activity change, negative = inhibition": "inactive: -0.175%"}
{"smiles": "Cc1[nH]nc(SCC(=O)N2CCC(C)CC2)c1[N+](=O)[O-]", "Potency": "active: 6.31 µM"}
{"smiles": "Cc1cccc(Nc2n[nH]c(C)c2[N+](=O)[O-])c1", "Potency": "active: 11.2 µM"}
{"smiles": "COc1ccc(C)cc1NC(=O)CCC(=O)Nc1ccc2nc(N3CCN(C)CC3)cc(C)c2c1", "Potency": "inconclusive [inhibitor, partial curve]"}
{"smiles": "Cc1nc2ccc(NC(=O)N3CCCCC3)cc2nc1C", "Potency": "inconclusive [inhibitor, partial curve]"}
{"smiles": "COc1ccc2c(c1)[nH]c(=O)c1sc3ccccc3c12", "Potency": "inconclusive [inhibitor, partial curve]"}
{"smiles": "NC(=O)c1ccccc1N/C=C/C(=O)c1ccc(Cl)cc1Cl", "Potency": "active: 12.6 µM"}
{"smiles": "C=CCn1c(=N)c(C(=O)OCC)cc2c(=O)n3cc(C)ccc3nc21", "Potency": "inconclusive [inhibitor, partial curve]"}
{"smiles": "Cn1cccc1C(=O)N1CCC2(CC1)CCN(C(c1ccccc1)c1ccccc1)CC2", "activity change, negative = inhibition": "inactive: -1.48%"}
{"smiles": "COc1ccccc1NC(=O)N(CCCN1CCOCC1)Cc1cc2cc3c(cc2[nH]c1=O)OCO3", "Potency": "inconclusive [inhibitor, partial curve]"}
{"smiles": "CC(C)c1ccc(C2CC(=O)N3CN(Cc4ccco4)CSC3=C2C#N)cc1", "note": "(stereo not drawn)", "Potency": "active: 15.8 µM"}
{"smiles": "Cc1c(C(=O)N(C)C2CCCCC2)sc2nc3ccc(N)cc3n12", "Potency": "active: 8.91 µM"}
{"smiles": "Cc1ccc(C)c(NC(=S)NNC(=O)c2csc(C)c2)c1", "activity change, negative = inhibition": "inactive: -5.84%"}
{"smiles": "Cc1c(Cl)cnc(NC(=O)COC(=O)c2ccc([N+](=O)[O-])s2)c1Cl", "Potency": "inconclusive [inhibitor, partial curve, poor fit]"}
{"smiles": "c1ccc(C2=NNC(=NC3CC3)SC2)cc1", "Potency": "inconclusive [inhibitor, partial curve, poor fit]"}
{"smiles": "CCOc1ccc(Cn2c(SCCCCC#N)nc3c2c(=O)n(C)c(=O)n3C)cc1OCC", "Potency": "inconclusive [inhibitor, single point]"}
{"smiles": "N#C/C(=C\\c1ccc(-c2ccc(Br)cc2)o1)C(=O)NCCc1c[nH]c2ccccc12", "activity change, negative = inhibition": "inactive: -14%"}
{"smiles": "O=C(COc1ccc2c(c1)OCO2)NC12CC3CC(CC(C3)C1)C2", "Potency": "inconclusive [inhibitor, single point]"}
{"smiles": "Cc1cc(C(=O)NCc2cccs2)c(C)o1", "Potency": "active: 15.8 µM"}
{"smiles": "Cn1c(=O)oc2cc(S(=O)(=O)N3CCCC(C(=O)NC4CCCc5ccccc54)C3)ccc21", "note": "(stereo not drawn)", "Potency": "inconclusive [inhibitor, full curve]"}
{"smiles": "CCC(c1c(C)[nH]oc1=O)c1c(C)[nH]oc1=O", "activity change, negative = inhibition": "inactive: -3.26%"}
{"smiles": "CCc1nc(NCCC(C)C)c(C#N)c2c1CCCC2", "Potency": "inconclusive [inhibitor, partial curve]"}
{"smiles": "c1ccc(-c2nnc(CN3CCCc4ccccc43)o2)cc1", "Potency": "inconclusive [inhibitor, partial curve]"}
{"smiles": "O=c1cc(NCc2ccccc2)nc2n1CCCS2", "Potency": "inconclusive [inhibitor, full curve]"}
{"smiles": "COC(=O)c1sc2nc3c(cc2c1N)COC(C)(C)C3", "Potency": "inconclusive [inhibitor, partial curve]"}
{"smiles": "O=C1C2N=NN(CC(=O)N3N=C(c4cccc5ccccc45)CC3c3ccccc3)C2C(=O)N1c1ccccc1", "note": "(stereo not drawn)", "Potency": "inconclusive [inhibitor, partial curve]"}
{"smiles": "COc1ccc(NC(=O)c2ccc(C)cc2Cl)c([N+](=O)[O-])c1", "activity change, negative = inhibition": "inactive: -15.1%"}
{"smiles": "COc1ccc(OC(=O)c2cn(C)nc2C(F)(F)F)cc1", "activity change, negative = inhibition": "inactive: -8.89%"}
{"smiles": "COC(=O)c1ccc(CSc2nnc(NC(C)C)s2)cc1", "Potency": "inconclusive [inhibitor, partial curve]"}
{"smiles": "O=C(NCc1ccco1)c1csc(Nc2ccccc2Cl)n1", "Potency": "active: 15.8 µM"}
{"smiles": "CCOC(=O)c1sc(NC(=O)CSc2nc(C)cc(C(F)(F)F)n2)c(C#N)c1C", "Potency": "active: 3.55 µM"}
{"smiles": "CC(C)CCNc1nc2c(c(=O)n(Cc3cccc(F)c3)c(=O)n2C)n1C", "Potency": "inconclusive [inhibitor, partial curve]"}
{"smiles": "CS(=O)(=O)N1CCC2(CCN(c3cccc(-c4ccccc4)c3)CC2)CC1", "Potency": "inconclusive [inhibitor, single point]"}
{"smiles": "CCOC(=O)c1c(N)sc2c1CCC1C(=O)N(C3CCCCC3)C(=O)C21", "note": "(stereo not drawn)", "Potency": "inconclusive [inhibitor, single point]"}
{"smiles": "COc1ccc(/C=C/C(=O)NC(=S)Nc2ccc(C(=O)O)cc2)cc1", "Potency": "inconclusive [inhibitor, partial curve]"}
{"smiles": "CCCCC1(C)OC(=O)C(=Cc2ccc(N(C)C)cc2)C(=O)O1", "note": "(stereo not drawn)", "Potency": "active: 11.2 µM"}
{"smiles": "CCOC(=O)CCc1c(C)c2ccc(OC(C)C(=O)OCC)c(C)c2oc1=O", "note": "(stereo not drawn)", "Potency": "inconclusive [inhibitor, partial curve]"}
